Test results as given in PubChem BioAssay AID1508624 (National Center for Advancing Translational Sciences (NCATS), 2021).
Screen size: about 48,000 compounds; about 120 (0.25%) were called active. Not shown: some 4% with an inconclusive outcome. The call rests on the fitted dose curve; in most records, active means well fitted activation curve with a large enough effect; inconclusive means small, poorly fitted or top-dose-only effect, or another doubt; inactive means no such curve, though single readings can be large or run the other way. This is one part of the list.

test: Primary qHTS for Identification of Small Molecule Activators of Huntingtin-Antisense Promoter Activity; conditions: HEK293 HTT-AS promoter firefly luciferase reporter, 24 h; series mostly up to 57.5 µM; activity change, positive = activation: at the top concentration; further: nearly all actives have a fitted effect of over 55% in size
In short: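 Firefly luciferase readout (Dual-Glo, 10 min RT) after 24 h, 37 °C compound exposure (final up to 57.5 uM) of HEK293 reporter cells cultured 24 h beforehand; PTC124 at 50 uM final as control inhibitor; activity scaled vehicle 0%, zero RLU -100%.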

Activity change, positive = activation, inactive:
CCOc1ccccc1CNC(=O)CCCn1c(=O)c2cccn2c2cccnc21 -6.71%, Clc1ccc(N2CCN(Cc3nnc(-c4ccc5c(c4)OCO5)o3)CC2)cc1 -2.7%, COc1ccc(-c2cccc(NS(=O)(=O)c3cccs3)c2)nn1 2.53%, CN(C)CCOC(=O)C(c1ccccc1)C1(O)CCCC1 (centres undefined) -1.63%, COc1ccc(NC(=O)C2=C(C)Nc3c(C(=O)Nc4ccc(C)cc4)cnn3C2c2cccc(Cl)c2)cc1 (centres undefined) -5.91%, CCCCN(CC)C(=O)c1c[nH]c2ccc(S(=O)(=O)Nc3cccc(OC)c3)cc2c1=O -9.3%, COc1ccc(NC(=O)CC2Nc3cccc4cccc(c34)NC2=O)cc1 (centres undefined) -22.6%, Cc1ccc2oc(-c3cccc(NC(=O)c4cccc5c(Br)cccc45)c3)nc2c1 16.4%, Cc1ccc2onc(CC(=O)N3CCN(c4ccccc4F)CC3)c2c1 -7.09%, CCc1cc(Cl)c(OC)c(C(=O)NC[C@@H]2CCCN2CC)c1O -4.54%, COc1ccc(-c2cc(C)no2)cc1S(=O)(=O)N1CCN(c2ccc(C(C)=O)cc2)CC1 -18.2%, Clc1ccccc1CSc1nncn2c1cc1occc12 3.83%, O=C(CCCn1c(=O)c2cccn2c2ccccc21)Nc1cccc(Cl)c1 -36.6%, COc1ccc(-c2onc(C)c2C)cc1S(=O)(=O)Nc1ccc(OC(F)(F)F)cc1 -37.6%, Cc1ccc(CSc2oc(-c3ccco3)nc2S(=O)(=O)c2ccc(Cl)cc2)cc1 -8.13%, CCOC(=O)c1cccc(NC(=O)c2cc(S(=O)(=O)N3CCCC3)cn2C)c1 -19.5%, CCOC(=O)CNC(=O)c1cc2c(=O)n(CC)c3ccccc3c2s1 -3.78%, COC(=O)c1cc2sc(C)cc2n1Cc1ccccc1 -12.7%, Cc1ccc(CNC(=O)CSc2ccc(-c3sc(-c4ccccc4)nc3C)nn2)cc1 -12.8%, CCCOC(=O)c1ccc(NC(=O)Cn2nnc3sc4c(c3c2=O)CCC(C(C)(C)C)C4)cc1 (centres undefined) -11.2%, CCCOc1ccc(/C=C/C(=O)Nc2sc3c(c2C(=O)OCC)CCC(C)C3)cc1OC (centres undefined) -15.6%, O=S(=O)(c1ccc(Br)cc1)c1nc(-c2ccco2)oc1SCc1ccccc1F -13.6%, COc1ccc(NC(=O)c2ccco2)cc1NC(=O)C(C)Oc1ccc(Cl)cc1Cl (centres undefined) -35.1%, CCOc1ccc(CCNC(=O)CN2C(=O)c3cccnc3Oc3ccc(C)cc32)cc1OCC -10.9%, O=C(Nc1cccc(C(F)(F)F)c1)c1cc2nc(-c3ccccc3)cc(C(F)(F)F)n2n1 -12.7%, CCCOc1ccc(-c2cccc(NS(=O)(=O)c3cccs3)c2)nn1 6.31%, COc1ccc(CCNC(=O)CCc2c(C)nc3c(-c4ccc(F)cc4)c(C)nn3c2C)cc1OC -8.7%, CC1=C(C(=O)OC2CCCCCC2)C(c2ccccc2Cl)CC(=O)N1 (centres undefined) -32.9%, CCc1ccc(NC(=O)CN(c2ccc(C)cc2)S(=O)(=O)c2c(C)nn(C)c2C)cc1 -15.9%, COCCCNC(=O)N1CCN(c2nnc(C)c3c(C)n(-c4ccc(Cl)cc4)nc23)CC1 -3.85%, CCOc1cccc(CC(=O)N2CCc3c([nH]c4ccccc34)C2c2ccc(OC)cc2)c1OCC (centres undefined) -16.1%, COc1ccc(Cn2c(C(=O)O)c(CNCCc3cccs3)c3ccc(OC)cc32)cc1 -17.4%, Cc1oc2ncn(C)c(=O)c2c1C(=O)N1CCN(c2ccc(Cl)cc2)CC1 -13.6%, COc1ccc(-c2c(C)nn3c(C(F)(F)F)cc(C)nc23)cc1OC -24%, COc1cccc(CNCCCSc2nnnn2C)c1 -18.7%, Cc1ccccc1CN1C(=O)c2ccccc2S(=O)c2ccc(C(=O)NCc3ccccc3)cc21 (centres undefined) -2.23%, COc1ccc(C(=O)NCC(c2cccnc2)N2CCN(c3ccccc3F)CC2)cc1OC (centres undefined) -24.1%, CCCc1nn2c(=O)cc(COC(=O)c3ccccc3NC(=O)C3CCCCC3)nc2s1 -21.4%, CC(C)(C)NCC(O)COc1ccccc1OCC1CCCO1 (centres undefined) -7.46%, Cc1ccc(NC(=O)C2CCN(S(=O)(=O)c3cccs3)CC2)cc1 -25.2%, COC(=O)c1c(C)sc(-c2c(-c3ccc(F)cc3)[nH]c3[nH]c(=O)[nH]c(=O)c23)c1O -13%, CCC(=O)O[C@]1(C(=O)SCF)[C@H](C)C[C@H]2[C@@H]3C[C@H](F)C4=CC(=O)C=C[C@]4(C)[C@@]3(F)[C@@H](O)C[C@@]21C, Cc1ccc(CNC(=O)c2cnn3c(C)c(Cc4c(F)cccc4Cl)c(C)nc23)cc1 10.9%, Cc1ccc2oc3c(c(=O)c2c1)C(c1cccc(O)c1)N(CCCN1CCOCC1)C3=O (centres undefined) -8.87%, Nc1[nH]c(=O)ncc1F, CCOc1ccc(CCNC(=O)c2ccc(C)c(-n3c(C)nc4cccnc43)c2)cc1OCC -10.2%, Cc1cccc(-c2nnc(SCC(=O)NC3CCCCC3)o2)c1 -20.3%, COc1ccc(N(Cc2cccs2)C(=O)COc2ccc([N+](=O)[O-])cc2)cc1 -31.8%, Cc1cc(Br)ccc1NC(=O)CN1C(=O)c2cccnc2Sc2ccccc21 -14.2%, CCOc1ccc(N(CC(=O)Nc2ccc3c(c2)OCO3)S(=O)(=O)c2ccccc2)cc1 -32.9%, CC(C)Sc1ncc(Cl)c(C(=O)Nc2c(C(=O)Nc3ccccc3)oc3ccccc23)n1 15.7%, O=C1c2oc3ccccc3c(=O)c2C(c2cccc(O)c2)N1Cc1ccc(F)cc1 (centres undefined) -29.4%, Cc1nn(C)c2c1c(-c1ccccc1)cc(=O)n2Cc1c(F)cccc1Cl -22.2%, Cc1ccccc1Nc1c(-c2ccccc2O)nc2sccn12 -30.3%, CCc1ccc(NS(=O)(=O)c2ccc3[nH]cc(C(=O)N4CCCCCC4)c(=O)c3c2)cc1 15.6%, O=C1CN(C(=O)c2ccc(S(=O)(=O)N3CCCC3)cc2)C(c2ccc(F)cc2)c2cc(F)ccc2N1 (centres undefined) -4.14%, CCN(c1ccccc1)S(=O)(=O)c1nnc(NC(=O)C(C)Oc2ccccc2)s1 (centres undefined) -26.7%, CCOC(=O)Cc1ccc(NC(=O)N2CCC(CN3CCC(C)CC3)CC2)cc1 -8.25%, COc1ccc(N(C(=O)c2ccc(C)cc2)S(=O)(=O)c2ccc(Cl)cc2)cc1 13.2% [at 11.5 µM, percent change from vehicle, -100% = no light], COc1cc(C2C(C(=O)Nc3ccc(C)cc3C)=C(C)Nc3nc(SCc4ccccc4)nn32)cc(OC)c1OC (centres undefined) -12.4%, COc1cc2[nH]c(=O)n(CCCCCC(=O)N3CCN(c4ccc(Cl)cc4)CC3)c(=O)c2cc1OC -2.86%, Cc1cccc(Cn2c(=O)n(CC3CCC(C(=O)N4CCC(C)CC4)CC3)c(=O)c3sccc32)c1 (centres undefined) -16.2%, O=C(CSc1cn(CC(=O)N2CCCC2)c2ccccc12)Nc1ccccc1C(F)(F)F -29.5%, Cc1ccc(CNC(=O)CN(c2cc(C)cc(C)c2)S(=O)(=O)c2c(C)noc2C)cc1 -9.16%, Cc1nc2cc(-c3ccccc3)nn2c(C)c1CCC(=O)NCc1cccc(Cl)c1 -71.2%, COC(=O)c1ccccc1NC(=O)c1ccc2c(Cl)c3c(nc2c1)CCCC3 19%, COc1cc2nc(NCc3ccccc3)n3nc(-c4ccccc4)nc3c2cc1OC -1.57%, CCOC(=O)Cc1ccc(NC(=O)N2CC(C)Oc3ccc(Cl)cc32)cc1 (centres undefined) -22.3%, Cc1nc2ccn(Cc3cccs3)c(=O)c2cc1C(=O)N1CCN(c2ccccc2)CC1 -12.4%, Cc1[nH]nc2ccc(-c3cncc(OC[C@@H](N)Cc4ccccc4)c3)cc12 -43.1%, O=C(O)C(Cc1cc(I)c(O)c(I)c1)c1ccccc1 (centres undefined) -18%, Cc1ccc(-n2cnc3cc(C(=O)NCc4ccccc4Cl)ccc32)c(C)c1 -29.5%, COc1ccc(CC(=O)NCc2ccc3c(c2)CCN3C(=O)c2cccc(C)c2)cc1 -56%, Cc1nc(-n2nc(C)c(Cc3ccc4c(c3)OCO4)c2C)sc1C(=O)Nc1ccc(Cl)cc1 -18.3%, CCCOc1cccc(C2c3c(oc4ccc(F)cc4c3=O)C(=O)N2Cc2ccc3c(c2)OCO3)c1 (centres undefined) -8.62%, Cc1cccc(Cn2cccc2CNS(=O)(=O)c2ccc(C)c(C)c2)c1 -16.6%, O=C(c1ccco1)n1nc(-c2ccc(Cl)cc2)nc1NCc1ccc(F)cc1 4.23%, CN1c2ccccc2C(=O)N2CCc3c([nH]c4ccccc34)C21 (centres undefined) -57.2%, CN1CCSc2ccc(C(=O)NCc3ccccc3)cc21 18.5%, CCCCN(Cc1ccco1)C(=O)Cn1ncc2c([nH]c3ccccc32)c1=O -18.9%, COc1ccc(C2C(C(=O)Nc3ccccc3)=C(C)Nc3nc(-c4ccccc4Cl)nn32)cc1OC (centres undefined) -9.47%, CCOCCCNc1nc2cc(OC)c(OC)cc2c2nc(-c3ccccc3)nn12 -2.28%, CCOC(=O)c1scc(-c2ccc(C)cc2)c1S(=O)(=O)Nc1ccc(OC)c(Cl)c1 -33.1%, Cc1ccc(NC(=O)Cn2c(=O)n(CCC(=O)NCc3ccccc3Cl)c(=O)c3ccccc32)c(C)c1 -13.3%, O=C(Nc1ccc2nc(SCCOc3ccccc3)sc2c1)c1ccc2c(c1)OCO2 -7.53%, Cc1nc2nc(SCC(=O)N(Cc3ccccc3)C(C)C)nn2c(C)c1Cc1ccccc1Cl -4.09%, CSc1ccc(CCNc2ncnc3onc(-c4ccc(Cl)cc4)c23)cc1 -53%, CCc1ccc2ncc3c(-c4ccc(C)cc4)nn(CC(=O)Nc4ccc(C)cc4)c3c2c1 4.69%, COc1ccc(Oc2nc3c(C)cccn3c(=O)c2/C=C(\C#N)c2nc3ccccc3[nH]2)cc1 -8.63%, Cc1cc(C)c(NC(=O)Cn2c(=O)n(-c3ccc(F)cc3)c(=O)c3c(C)c(C(=O)N(C)C)sc32)c(C)c1 -14.7%, COC(=O)c1cc2occc2n1Cc1nc(-c2cccc(Br)c2)oc1C 16.4%, CCOC(=O)N1CCN(Cc2nc3cc(NC(=O)c4ccccc4OC)ccc3n2C(C)C)CC1 -44.3%, Cc1ccc(-n2c(=O)c3ccc(C(=O)NCc4ccco4)cc3n(Cc3ccc(Cl)cc3)c2=O)cc1 -17.3%, Cc1ccccc1CNCCSc1nnnn1-c1ccccc1 17.1%
